Here are results for four compounds from patent US10654851B2, “Deuterated 3-(4,5-substituted aminopyrimidine)phenyl derivatives and use thereof” (NANJING CHUANGTE PHARMACEUTICAL TECHNOLOGY CO., LTD, priority 2016, dated 2020).

Molecules are shown by their SMILES.

One test concerns the target EGFR (T790M, L858R) double mutant in NCI-H1975 cells (Homo sapiens, UniProt P00533, L858R/T790M).
Assay: not given
The following applies: 2 h incubation, read-out: Cell level EGFR phosphorylation IC50, NCI-H1975 (EGFR T790M/L858R). The format is cell-based.
On to `[2H]C([2H])([2H])N(C)CCN(C)c1cc(OC)c(Nc2nccc(-c3cn4c5c(cccc35)CCC4)n2)cc1NC(=O)C=C` [Compound 11], for which the IC50 worked out at 85.8 nM.

Turning to `[2H]C([2H])([2H])N(CCN(C)c1cc(OC)c(Nc2nccc(-c3cn4c5c(cccc35)CCC4)n2)cc1NC(=O)C=C)C([2H])([2H])[2H]` [Compound 16], the IC50 is 94.9 nM.

With `[2H]C([2H])([2H])N(CCN(C)C)c1cc(OC)c(Nc2nccc(-c3cn4c5c(cccc35)CCC4)n2)cc1NC(=O)C=C` [Compound 24], the IC50 worked out at 85.1 nM.

The target of a further test is EGFR (T790M, L858R) double mutant (Homo sapiens, UniProt P00533, L858R/T790M). Nature of the test: HTRF kinase activity assay, EGFR (T790M, L858R) double mutant.
Conditions: not given
The compound `[2H]C([2H])([2H])N(C)CCN(C)c1cc(OC)c(Nc2nccc(-c3cn4c5c(cccc35)CCC4)n2)cc1NC(=O)C=C` [Compound 11] came in with an IC50 of 8.07 nM.

`[2H]C([2H])([2H])N(CCN(C)c1cc(OC)c(Nc2nccc(-c3cn4c5c(cccc35)CCC4)n2)cc1NC(=O)C=C)C([2H])([2H])[2H]` [Compound 16]: the IC50 was 9.12 nM.

In the case of `[2H]C([2H])([2H])N(CCN(C)C)c1cc(OC)c(Nc2nccc(-c3cn4c5c(cccc35)CCC4)n2)cc1NC(=O)C=C` [Compound 24], the IC50 stood at 5.02 nM.

On to `[2H]C([2H])([2H])NCCN(C)c1cc(OC)c(Nc2nccc(-c3cn4c5c(cccc35)CCC4)n2)cc1NC(=O)C=C` [Compound 34], for which the IC50 was 6.84 nM.
